This is one part of the list. These are noisy estimates, calculated here from bound and input reads.

The test deals with T1, Pho4 (S. cerevisiae) (UniProt P07270).
T1 sequence: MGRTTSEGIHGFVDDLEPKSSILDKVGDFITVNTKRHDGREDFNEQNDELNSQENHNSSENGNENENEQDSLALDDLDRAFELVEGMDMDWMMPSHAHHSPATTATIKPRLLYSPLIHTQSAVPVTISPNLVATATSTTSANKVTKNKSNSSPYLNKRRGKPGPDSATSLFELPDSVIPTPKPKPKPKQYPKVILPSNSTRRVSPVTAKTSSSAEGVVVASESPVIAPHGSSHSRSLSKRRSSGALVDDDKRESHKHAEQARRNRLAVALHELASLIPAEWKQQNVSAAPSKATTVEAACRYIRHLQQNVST
In words: relative binding free energy (BET-seq); higher = weaker binding. The conditions noted are these: reference: library average.
As to TATAGCACGTGGTGGG, the “relative binding free energy” value is -0.12 kcal/mol. For ATTGCCACGTGCGTGG, the “relative binding free energy” value is -0.23 kcal/mol. CTGTTCACGTGTAAGA: the “relative binding free energy” value was 0.27 kcal/mol. On to TGTTCCACGTGTAGGA, for which the “relative binding free energy” value is -0.05 kcal/mol.

On to TTTGTCACGTGTTCTA, for which the “relative binding free energy” value was 0.12 kcal/mol.

For GTCGCCACGTGGTTGT, the “relative binding free energy” value was -0.1 kcal/mol.

Turning to ATTTTCACGTGTTGCA, the “relative binding free energy” value came out at 0.3 kcal/mol. The same measure for GGTATCACGTGTTTAA: -0.01 kcal/mol; for TTGTGCACGTGCTAAG: -0.16 kcal/mol.

As to TGGGTCACGTGTGTCT, the “relative binding free energy” value turned out to be 0.08 kcal/mol. GACTGCACGTGGTTGT: the “relative binding free energy” value came to 0.18 kcal/mol.

Take AGAGGCACGTGTCTTT: the “relative binding free energy” value turned out to be 0.06 kcal/mol. GTTTCCACGTGGGCTG: the “relative binding free energy” value was 0.05 kcal/mol. Consider TGGAGCACGTGGCATG, for which the “relative binding free energy” value was -0.32 kcal/mol. Regarding TTGGGCACGTGCAGCG, the “relative binding free energy” value is -0.14 kcal/mol. As for TGAGTCACGTGTCTGA, the figure is 0.15 kcal/mol; as for AGTCACACGTGTGTTA, 0.05 kcal/mol.

In the case of GGGTACACGTGGGCTA, the “relative binding free energy” value is -0.07 kcal/mol.

As to AGATGCACGTGTGTAA, the “relative binding free energy” value is -0.02 kcal/mol. On to GGATTCACGTGGCATT, for which the “relative binding free energy” value worked out at 0.16 kcal/mol. The same measure for AATGGCACGTGCTTGG: -0.21 kcal/mol; for TTTCACACGTGGTTAG: 0.15 kcal/mol.

For the sequence TGGTGCACGTGACTAG, the “relative binding free energy” value is 0.01 kcal/mol.

Consider AAGTTCACGTGCTTAG, for which the “relative binding free energy” value is 0.2 kcal/mol. The same measure for GGGATCACGTGTGGGA: 0.31 kcal/mol; for TTGGCCACGTGGTAGA: -0.11 kcal/mol; for TACAGCACGTGATGGG: 0.02 kcal/mol.

In the case of AAGAGCACGTGTTAAT, the “relative binding free energy” value is -0.04 kcal/mol.

On to TGTAACACGTGCTGTT, for which the “relative binding free energy” value was -0.07 kcal/mol. Take ATGTGCACGTGGCAGG: the “relative binding free energy” value is -0.09 kcal/mol. As to GCGGTCACGTGCAGGT, the “relative binding free energy” value was -0.08 kcal/mol. As for AAGTTCACGTGGTTGT, the figure is 0.2 kcal/mol; as for GACGGCACGTGGTTGG, 0.01 kcal/mol. As for AATCACACGTGGGGAT, the figure is 0.07 kcal/mol. Turning to AGGTACACGTGGAAGT, the “relative binding free energy” value is 0.09 kcal/mol. With TCTGGCACGTGTAATG, the “relative binding free energy” value came out at 0.03 kcal/mol.

As for CGGGACACGTGCGTTG, the “relative binding free energy” value is -0.03 kcal/mol.

Take TCTGTCACGTGGGCGA: the “relative binding free energy” value was -0.04 kcal/mol. For GTGTTCACGTGGTTCC, the “relative binding free energy” value amounted to 0.33 kcal/mol.

As to GATGGCACGTGCCGGG, the “relative binding free energy” value was -0.1 kcal/mol. For TTTGACACGTGAATAG, the “relative binding free energy” value amounted to 0.14 kcal/mol. As for AGTTGCACGTGGGAGC, the “relative binding free energy” value was -0.17 kcal/mol. The same measure for GCTAGCACGTGTTTGT: -0.1 kcal/mol; for TTGTCCACGTGTGTAA: 0.07 kcal/mol.

Turning to AACGTCACGTGGGGGG, the “relative binding free energy” value was 0.04 kcal/mol. As for TGCTGCACGTGGGATT, the figure is -0.15 kcal/mol; as for TTGGTCACGTGGATGC, 0.23 kcal/mol; as for GGACCCACGTGGTGTG, -0.1 kcal/mol.

Regarding TTGTGCACGTGGTTGT, the “relative binding free energy” value was -0.06 kcal/mol. For GCTCGCACGTGTGTGG, the “relative binding free energy” value is -0.03 kcal/mol. Turning to GGGGCCACGTGAGTCG, the “relative binding free energy” value stood at 0.1 kcal/mol.

With CTCGTCACGTGTAGGT, the “relative binding free energy” value is -0.06 kcal/mol. As for TTCAGCACGTGTTAGG, the “relative binding free energy” value was -0.11 kcal/mol.

Turning to TGGTACACGTGAGGTG, the “relative binding free energy” value worked out at 0.27 kcal/mol. For CCTAGCACGTGGGGTG, the “relative binding free energy” value was -0.22 kcal/mol. As for CATGTCACGTGTCTGG, the “relative binding free energy” value was found to be 0.07 kcal/mol. Take CAAGGCACGTGGGCGG: the “relative binding free energy” value is -0.37 kcal/mol. Consider ATTGGCACGTGTGGCT, for which the “relative binding free energy” value was -0.09 kcal/mol. For CGGTCCACGTGGTTTG, the “relative binding free energy” value worked out at 0.04 kcal/mol.

For TGTGTCACGTGACATG, the “relative binding free energy” value was determined as 0.06 kcal/mol. On to TAGCTCACGTGTATGT, for which the “relative binding free energy” value was found to be 0.14 kcal/mol.

Regarding ACTTTCACGTGTGTGT, the “relative binding free energy” value is 0.22 kcal/mol. TTCGTCACGTGTTAAT: the “relative binding free energy” value is -0.01 kcal/mol. On to GTCGGCACGTGAGGCT, for which the “relative binding free energy” value was determined as 0.21 kcal/mol. As for TGGATCACGTGACTTG, the figure is 0.32 kcal/mol; as for TACGGCACGTGTTAGT, -0.02 kcal/mol; as for ACTGTCACGTGATAGT, 0.22 kcal/mol. In the case of CGAGACACGTGAAGGG, the “relative binding free energy” value stood at 0.21 kcal/mol. Regarding GTATACACGTGTGTGT, the “relative binding free energy” value is -0.02 kcal/mol. With TTAGGCACGTGAACGT, the “relative binding free energy” value was 0.16 kcal/mol.

In the case of TCCGTCACGTGGTGAT, the “relative binding free energy” value is 0.14 kcal/mol.

Regarding GATTGCACGTGTGAGA, the “relative binding free energy” value is 0.23 kcal/mol. For ATGTTCACGTGGGGTA, the “relative binding free energy” value was found to be 0.11 kcal/mol. Consider TCCGGCACGTGTGTAG, for which the “relative binding free energy” value is -0.09 kcal/mol. Regarding AGTAGCACGTGTATAT, the “relative binding free energy” value was -0.11 kcal/mol.

As for TTTAACACGTGGGTAT, the “relative binding free energy” value was -0.09 kcal/mol. With TGGTGCACGTGAGCCT, the “relative binding free energy” value was determined as 0.19 kcal/mol. Turning to GCGGACACGTGTGGAG, the “relative binding free energy” value is 0.11 kcal/mol. Consider CAGTGCACGTGGTGGA, for which the “relative binding free energy” value was -0.18 kcal/mol. The same measure for GAATGCACGTGAGGGC: 0.32 kcal/mol; for ACTTTCACGTGGAGGG: 0.16 kcal/mol.

For TGGTGCACGTGTACAT, the “relative binding free energy” value was -0.04 kcal/mol. For AAGGGCACGTGGGTTG, the “relative binding free energy” value was -0.29 kcal/mol. As for GTATGCACGTGGTCTA, the “relative binding free energy” value was -0.03 kcal/mol.

As for CATTGCACGTGTGTTT, the “relative binding free energy” value is 0.03 kcal/mol. As for GATTACACGTGTAGGG, the “relative binding free energy” value worked out at 0.05 kcal/mol. For TGCTTCACGTGGTTAT, the “relative binding free energy” value worked out at 0.26 kcal/mol. As for AATGGCACGTGGCTGT, the figure is -0.24 kcal/mol; as for CTCTTCACGTGGGGGG, 0.16 kcal/mol. Take GGCTTCACGTGATATT: the “relative binding free energy” value stood at 0.44 kcal/mol. For the sequence CTGTTCACGTGGAGAT, the “relative binding free energy” value came to 0.32 kcal/mol.

For GTAGGCACGTGTATGT, the “relative binding free energy” value was -0.1 kcal/mol. Consider GTGATCACGTGTATTA, for which the “relative binding free energy” value worked out at 0.13 kcal/mol. The same measure for CGTAGCACGTGTCGGT: -0.04 kcal/mol; for TGGTACACGTGGACTG: 0 kcal/mol. On to GAAGTCACGTGTTTAT, for which the “relative binding free energy” value worked out at 0.17 kcal/mol.

AAAATCACGTGGTTTA: the “relative binding free energy” value was determined as 0.21 kcal/mol. As for GTTGTCACGTGTAGAG, the figure is 0.14 kcal/mol; as for TGTTGCACGTGCGTGT, -0.13 kcal/mol; as for TGGATCACGTGTGTTA, 0.18 kcal/mol. On to GAGGACACGTGGGCGA, for which the “relative binding free energy” value was -0.02 kcal/mol. On to GGTCGCACGTGGCTTG, for which the “relative binding free energy” value was -0.02 kcal/mol. For CGTGTCACGTGTAGGT, the “relative binding free energy” value came out at 0.05 kcal/mol. On to GTATGCACGTGTGGCT, for which the “relative binding free energy” value is -0.11 kcal/mol.

In the case of TGTAGCACGTGGGACT, the “relative binding free energy” value is -0.22 kcal/mol. On to GCTTACACGTGTGTAG, for which the “relative binding free energy” value was determined as 0.21 kcal/mol.

With TATCGCACGTGAAAGT, the “relative binding free energy” value stood at 0.44 kcal/mol. In the case of TCTGACACGTGTTATG, the “relative binding free energy” value was -0.01 kcal/mol.

Regarding AGGTTCACGTGGGAAC, the “relative binding free energy” value is 0.18 kcal/mol. The same measure for GGGGCCACGTGAAGAG: 0.17 kcal/mol; for CGTGCCACGTGGTTTA: -0.09 kcal/mol.

As for TGTGTCACGTGTCAAT, the “relative binding free energy” value is 0.11 kcal/mol. The same measure for TGATGCACGTGGCCAG: 0 kcal/mol. Regarding TAGGGCACGTGGGGAC, the “relative binding free energy” value was -0.43 kcal/mol.

With TGGATCACGTGTAGAG, the “relative binding free energy” value amounted to 0.15 kcal/mol.
